From publication PMC12136788
Some of the results follow.

B1: chr6:105098323:105098438:-|3pUTR|ENSG00000112276|msi1|total|mutant (ssRNA)
RNA: GGGAGUUCUACAGUCCGACGAUCUAUCAGUGUCUCAAUGUGAAGAUUGUAACCUCAAGAUCCGGAAUCUUAAAAGAGCCACUCCGCCUGAAUGGGAAACGUGAGACUAUUUUUAAACACACACCUCUAAGGAAGAAGCCUCCCCAACAGAGGAUUGAGCAUCA
B2: chr3:97755980:97756081:+|3pUTR|ENSG00000080224|unk|FALSE|unique (ssRNA)
RNA: GGGAGUUCUACAGUCCGACGAUCUAAUUAAAAAUCUCUUUCCUACCUUUAGUAAUUUGUAGGAUGAACUGUAUGCAUUUAGAUAGAAAUUGCUUUUGUUAAAUUUACAUUUAAACACAUCUUCAUUCACUUAGAGAAGCCAUACAACAGAGGAUUGAGCAUCA
B3: chr14:75134619:75134720:-|3pUTR|ENSG00000170348|msi1|FALSE|unique (ssRNA)
RNA: GGGAGUUCUACAGUCCGACGAUCAACAAGUCAAUGAGGGACUUCUUUUUAAUUUGGUAGGAUUUUGACUGGUUUUGCAACAAUAGGUCUAUUAUUAGAGUCACCUAUGACAAAAAAUAGGGGUUACCUAGAUAAUGCCAAAGUCAACAGAGGAUUGAGCAUCA
B4: chr8:143915506:143915607:-|3pUTR|ENSG00000178209|msi1|FALSE|unique (ssRNA)
RNA: GGGAGUUCUACAGUCCGACGAUCCCCCACACUCACUCCUGAGACCCCUGGCCUCCGGCGUCAGCCUCCAGCCUCUGUUCCCCUAGUAAGUGCCUUCCAUGUCGGCCUCUAACCCCAGGCCCCGAGGACCCAGACCCAGUGGGGCAACAGAGGAUUGAGCAUCA
B5: chr15:64957256:64957357:+|3pUTR|ENSG00000166839|msi1|total|mutant (ssRNA)
RNA: GGGAGUUCUACAGUCCGACGAUCGCUGGAAAAUUGAAACAUAAUUUCACAAUUAUUCCUUUUUCCACCUUAAAUAAUAAGAGCCGAAUACUUUCUGUGUUUUUAUCUUAUACACAUGAAUAAAUGCUAUGGCUUAUCACAGUUCAACAGAGGAUUGAGCAUCA
B6: chr7:108149816:108149915:-|CDS_3pUTR|ENSG00000091129|msi1_unk|FALSE|overlapping (ssRNA)
RNA: GGGAGUUCUACAGUCCGACGAUCGUCAACGCCAUGAAUUCCUUUGUUUAAUUUUUAAGCUCUUUGCCAAUAUUCCAUUUCUCUAGAAUGUUUAUCCUAAGCACUUGUUUGUCAGCCCUCUCAUACUAUGAACAUAUGGGUAGACAACAGAGGAUUGAGCAUCA
B7: chr3:196828865:196828966:+|3pUTR|ENSG00000180370|msi1|FALSE|bound_elsewhere (ssRNA)
RNA: GGGAGUUCUACAGUCCGACGAUCUGCUCCUUUUGAGUUGCUUUUGCGUUUCUCAUGCCUAGGCAAGUGUAAUAGAAAUUAUGUAGCUCCUUAUGUUGGCAAAGGAGCUCUAUAUAGUUUCACUUUGUAUAAAAGUUAGGACCACAACAGAGGAUUGAGCAUCA
B8: chr4:2179307:2179465:-|CDS|ENSG00000130997|control|control|control (ssRNA)
RNA: GGGAGUUCUACAGUCCGACGAUCCAGAAUUGCUGCAUGGCUUAUAGAUCCUAGUGAUGCCACACCCUCUUUUGAAGAUUUAGUAGAAAAAUACUGUGAAAAAUCCAUUACAGUUAAAGUGAACAGCACAUAUGGAAAUUCCUCCAACAGAGGAUUGAGCAUCA
B9: chr4:73571549:73576234:-|three_prime_utr|ENSG00000169435|control|control|control (ssRNA)
RNA: GGGAGUUCUACAGUCCGACGAUCUUGAUGAAUGCAUAAGUUCUGUACUUGCAUUUAUACGAACAUAUAUGAGACUUGAAUCGUAGAAAAUUGAAUGUCAAAAAAAGCUCAUUUCUUUUUGAAGUGAUGAGGUUAAUUAGGGUUCAACAGAGGAUUGAGCAUCA
B10: chr10:119917856:119917957:+|CDS|ENSG00000107651|unk|FALSE|unique (ssRNA)
RNA: GGGAGUUCUACAGUCCGACGAUCUAAGAAAAUCACUUUGCCAAGUAUUGGUCGAUUUCGUCACUUUACCAAUGAAACUUUGCUAGAUAUUUUAUUUUAUAACAGCCCCACCUACUGUCAGACAAUUGUGGAAAAAGUAGGAAUCAACAGAGGAUUGAGCAUCA
B11: chr20:5938399:5938502:-|3pUTR|ENSG00000089195|unk|total|mutant (ssRNA)
RNA: GGGAGUUCUACAGUCCGACGAUCGUCUGACUCUUAACCCUUUUGAGAAUUGCUCUGAAUUUUGUUCUCAGGCAUUAUACAGUCCGUAAUUAAACUUUAAAUGCCAUUACUACUUGUUUUUUCAUAUCCCAAGAAUAAGAACAUCAACAGAGGAUUGAGCAUCA
B12: chr3:7579146:7579247:+|CDS|ENSG00000196277|unk|total|mutant (ssRNA)
RNA: GGGAGUUCUACAGUCCGACGAUCGCCAGAGGGGUUCUCAAGUGUGACAUUACAGAUCUCCAAAUCAUUUGCUCCUUGGGAUACCGCAUUCUUCUCAUGGUCACAUGUACUGUGUAUGCCAUCAAGACUCGGGGUGUACCCGAGCAACAGAGGAUUGAGCAUCA
B13: ENSG00000110492:stop:overlap|stop_codon|ENSG00000110492|stop_codon|NA|stop_codon (ssRNA)
RNA: GGGAGUUCUACAGUCCGACGAUCAGCCCUGCACCCCCAAGACCAAAGCAAAGGCCAAAGCCAAGAAAGGGAAGGGAAAGGACUAGACGCCAAGCCUGGAUGCCAAGGAGCCCCUGGUGUCACAUGGGGCCUGGCCCACGCCCUCAACAGAGGAUUGAGCAUCA
B14: ENSG00000118515:stop:overlap|stop_codon|ENSG00000118515|stop_codon|NA|stop_codon (ssRNA)
RNA: GGGAGUUCUACAGUCCGACGAUCCUUCUGAGGAAGACCUAGAAUUGUGGUCUUUGUUAGCUCAUUAUGUUAUUUUUUUAAAGUAGGCUUUAUAUUUUAGAGCAGCUUUAAGUUCACAGCAACAUUGAGCAGAAGGUACAGAGACAACAGAGGAUUGAGCAUCA
B15: chr15:40903593:40903694:+|3pUTR|ENSG00000104142|msi1|total|mutant (ssRNA)
RNA: GGGAGUUCUACAGUCCGACGAUCCAGCCGAGGCCCUUCACCUGGAGAAGUCAGAAAUCUGACCCAAUUCCACCCCCUGCCUCCCGCACCUCUUCUGUCCCUGUCAUUCCCCACACACGUCCUGUUCACCUCGAGAGAGAGAGACAACAGAGGAUUGAGCAUCA
B16: chr13:29511929:29512034:-|3pUTR|ENSG00000139514|msi1_unk|total|mutant (ssRNA)
RNA: GGGAGUUCUACAGUCCGACGAUCUAUCAUAUCCCUCAUUUCUUUCCCUGAAAUAAAAAUACACACAAGCAAAAAAAAAAUGACCGUUUCACAUCUCUCCGUUCCCUUGCCCAAACAAGAAUAUUCUCCGUUCCACUGGCCAGGCAACAGAGGAUUGAGCAUCA
B17: chr9:34635388:34635489:-|3pUTR|ENSG00000147955|msi1|FALSE|unique (ssRNA)
RNA: GGGAGUUCUACAGUCCGACGAUCGGGAUAUCCAUGCUUAUGUAUCCAAACACAGAGACCCAUGGGAACAAAUGAGACACAUAUAGAUACUGAGACCUGUGUGUACAGUAGGACCAUGCACUCACACCCAUCUGGAGAGGGAGCCAACAGAGGAUUGAGCAUCA
B18: chr7:29923496:29923595:-|3pUTR|ENSG00000136193|msi1_unk|FALSE|overlapping (ssRNA)
RNA: GGGAGUUCUACAGUCCGACGAUCUCACAGUGCCGAGUUGGCGGGAAAAGCAAAUUCUUUUGAAGUCUUAGUCUUUCCCUCAGUAGCGGUUUCUUUCAGGUUAACAAGAGGCAUUUGUGCACACACACAGGGCUCUUGUGUGUGCAACAGAGGAUUGAGCAUCA
B19: chr1:83882962:83883136:-|CDS|ENSG00000137941|control|control|control (ssRNA)
RNA: GGGAGUUCUACAGUCCGACGAUCGACUCCUUUGCAGCUCCAGUGUUGCCAGCGCCUAGUGGAGCUUUGUAAACAGUGCCUGCUAGUGGUUUACAAAUAUGCAACUGACAAAAGAGGAUCACUUUCAGGCAUUGGUCCUGACUGCAACAGAGGAUUGAGCAUCA
B20: chr19:45712844:45712945:-|CDS|ENSG00000177051|unk|total|mutant (ssRNA)
RNA: GGGAGUUCUACAGUCCGACGAUCGGAACAGCGGGCAGCCCUGGCCCUGCAGAGCUACCCACGACCGACCACCCCAGCGCCUGCCGUCUUUGUGUCCGCCGAGCAAGGUGGACCGGCCAAGGGGGUGGGAUCUGAACGGCGGUCCAACAGAGGAUUGAGCAUCA
B21: chr4:145760401:145760502:-|3pUTR|ENSG00000151612|unk|total|mutant (ssRNA)
RNA: GGGAGUUCUACAGUCCGACGAUCUCCGUACUUUUCUCUGAAAGGAAUCUUGUCUUGUUAAACCCUAAAGAGAGUGUCCUUAACCGCAAUCAGCACUUGUAAGCUUAUAUACUGGUGCAUUUGGUUUUCUGUUGGGUGAAUGCGCAACAGAGGAUUGAGCAUCA
B22: chr8:133458587:133458688:-|3pUTR|ENSG00000008513|msi1|total|mutant (ssRNA)
RNA: GGGAGUUCUACAGUCCGACGAUCAUGAAACAAAAGCCCUUACUUGGGAAAAGGGACCCCCACCAGCGGCCCUGCUUGCUCCGCCGCUGGGAACAUCUUUUCUGGUUUCCUGAGCCAGCACCUGAAUUGCAACGAAGCUCUGAGCAACAGAGGAUUGAGCAUCA

What follows are binders tested against MSI1 full-length (mouse, UniProt Q61474 1-362) (assay: nsRBNS (natural sequence RNA bind-n-seq); RBNS binding buffer (assumed for nsRBNS): 25 mM Tris pH 7.5, 150 mM KCl, 3 mM MgCl2, 0.01% Triton X-100, 500 ug/ml BSA, 20 U/ml SUPERase-In, 4 C; UNK is unkempt and MSI1 is Musashi-1; names of the RNAs are library labels; protein concentration not given here; high values mean tight binding).
UniProt Q61474, sequence (Q61474 whole entry): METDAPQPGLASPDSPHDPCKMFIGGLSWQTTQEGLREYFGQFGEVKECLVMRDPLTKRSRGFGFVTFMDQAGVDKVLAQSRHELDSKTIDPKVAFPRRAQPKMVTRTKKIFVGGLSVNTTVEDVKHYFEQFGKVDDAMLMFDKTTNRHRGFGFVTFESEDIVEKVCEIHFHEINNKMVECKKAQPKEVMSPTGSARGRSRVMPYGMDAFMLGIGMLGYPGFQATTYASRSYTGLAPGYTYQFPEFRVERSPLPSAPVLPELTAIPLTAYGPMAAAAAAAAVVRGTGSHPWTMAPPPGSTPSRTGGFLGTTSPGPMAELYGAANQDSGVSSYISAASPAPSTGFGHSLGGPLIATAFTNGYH
In the case of B1, the binding signal is reported as 0.338 enrichment R. In the case of B2, the binding signal is reported as 19.4 enrichment R. For B3, the binding signal was 5.04 enrichment R. Binder B4 has a binding signal of 0.558 enrichment R. In the case of B5, the binding signal is reported as 0.616 enrichment R. For B6, the binding signal was 2.44 enrichment R. Work on B7 yielded a binding signal of 0.789 enrichment R. Work on B8 yielded a binding signal of 5.41 enrichment R. With B9 the binding signal was 0.408 enrichment R. For B10, the binding signal was 3.39 enrichment R. B11 showed a binding signal of 1.22 enrichment R. For B12, the binding signal was 0.324 enrichment R. B13 showed a binding signal of 0.51 enrichment R. In the case of B14, the binding signal is reported as 0.687 enrichment R. With B15 the binding signal was 0.587 enrichment R. B16 showed a binding signal of 0.638 enrichment R. B17 was tested, and the binding signal was 0.728 enrichment R. B18 gave a binding signal of 0.341 enrichment R. B19 showed a binding signal of 0.473 enrichment R. Binder B20 has a binding signal of 0.292 enrichment R. B21 was tested, and the binding signal was 0.257 enrichment R. Work on B22 yielded a binding signal of 0.216 enrichment R.
